# Laboratory results published in patent US20230278972A1, “SUBSTITUTED HALOALKYL SULFONANILIDE HERBICIDES” (FMC Corporation, priority 2020, published 2023).
# Legend:
# Details in all cases: Flood, 250 g ai/ha; visual rating after 13 to 15 days; scale of 0 to 100 where 0 is no effect and 100 is complete control
# [1] = tested on: barnyardgrass (Echinochloa crus-galli); test: Test B flooded paddy test, barnyardgrass
# rice (Oryza sativa) = test: Test B flooded paddy test, rice
# [2] = tested on: ducksalad (Heteranthera limosa); test: Test B flooded paddy test, ducksalad
# [3] = tested on: sedge, umbrella (small-flower umbrella sedge, Cyperus difformis); test: Test B flooded paddy test, sedge, umbrella
SMILES,"Plant response rating, Barnyardgrass [1]","Plant response rating, Rice (rice (Oryza sativa))","Plant response rating, Ducksalad [2]","Plant response rating, Sedge, Umbrella [3]"
Cc1cc(C)c(-c2cc(C(C)C)nn(C)c2=O)cc1NS(=O)(=O)C(F)(F)F [Compound 41],0,5,20,75
Cc1cc(Cl)c(C2=NOC(C)(C)C2)cc1NS(=O)(=O)C(F)(F)F [Compound 183],25,0,20,60
Cc1cc(C)c(N(S(=O)(=O)C(F)(F)F)S(=O)(=O)C(F)(F)F)cc1-c1cc(Br)nn(C)c1=O [Compound 67],0,0,15,85
CCC(=O)OCN(c1cc(C2=NOC3(CCCC3)C2)c(C)cc1C)S(=O)(=O)C(F)(F)F [Compound 144],90,15,35,80
Cc1cc(C)c(N(S(=O)(=O)C(F)(F)F)S(=O)(=O)C(F)(F)F)cc1C1=NOC2(CCCC2)C1 [Compound 208],65,15,85,98
COC1CCN(C(=O)c2cc(NS(=O)(=O)C(F)(F)F)c(C)c(F)c2C)CC1 [Compound 110],30,25,75,90
Cc1cc(C2CC2)c(NS(=O)(=O)C(F)(F)F)cc1C(=O)N1CCOCC1 [Compound 13],0,0,0,35
Cc1cc(C)c(C2=NOC3(CCC(C)(C)CC3)C2)cc1NS(=O)(=O)C(F)(F)F [Compound 163],0,0,60,90
Cc1cc(Cl)c(N(S(=O)(=O)C(F)(F)F)S(=O)(=O)C(F)(F)F)cc1C(=O)N1CCC(Cl)CC1 [Compound 200],0,0,0,0
Cc1cc(C)c(N(S(=O)(=O)C(F)(F)F)S(=O)(=O)C(F)(F)F)cc1C1=NOC2(CCCCCC2)C1 [Compound 158],35,35,70,90
Cc1cc(C(F)(F)F)c(NS(=O)(=O)C(F)(F)F)cc1C(=O)N(C)C [Compound 132],0,30,45,80
CCOC1CCCN(C(=O)c2cc(NS(=O)(=O)C(F)(F)F)c(C)cc2C)C1 (stereo not shown) [Compound 154],15,30,45,65
C#CCN(C)C(=O)c1cc(NS(=O)(=O)C(F)(F)F)c(C)cc1C [Compound 189],45,15,75,85
Cc1cc(Cl)c(C2=NOC3(CCCC3)C2)cc1NS(=O)(=O)C(F)(F)F [Compound 185],25,0,10,75
Cc1cc(F)c(C(=O)N2CCC(C#N)CC2)cc1NS(=O)(=O)C(F)(F)F [Compound 236],0,0,50,35
COC1CCCN(C(=O)c2cc(NS(=O)(=O)C(F)(F)F)c(C)cc2C)C1 (stereo not shown) [Compound 175],0,0,70,85
